# Experimental data taken from the supplement of paper PMC8728848.
# This is one part of the list.
# What was measured:
# Assay in all cases: glycan array binding signal (z-score within array); higher = stronger binding
# Details in all cases: glycan notation: IUPAC condensed, linker removed
# [1] = molecular target: Gal(a1-3)Gal(b1-3)GlcNAc
# In short: (§1)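 Arrays were curated from the Consortium for Functional Glycomics database, 3228 in total, and kept only where the protein sequence was available. Binding is expressed as a within-array Z-score. This score was averaged across arrays of the same protein sequence at different concentrations or buffers and across linkers, and negative values can be read as non-binding.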
# [2] = molecular target: Gal(a1-3)Gal(b1-3)GlcNAc(b1-2)Man(a1-3)[Gal(a1-3)Gal(b1-3)GlcNAc(b1-2)Man(a1-6)]Man(b1-4)GlcNAc(b1-4)GlcNAc
# In short: as §1
# [3] = molecular target: Gal(a1-3)Gal(b1-3)[Fuc(a1-4)]GlcNAc(b1-2)Man(a1-3)[Gal(a1-3)Gal(b1-3)[Fuc(a1-4)]GlcNAc(b1-2)Man(a1-6)]Man(b1-4)GlcNAc(b1-4)GlcNAc
# In short: as §1
# [4] = molecular target: Gal(a1-3)Gal(b1-4)Glc
# In short: as §1
# [5] = molecular target: Gal(a1-3)Gal(b1-4)GlcNAc
# In short: as §1
# [6] = molecular target: Gal(a1-3)Gal(b1-4)GlcNAc(b1-3)GalNAc
# In short: as §1
# [7] = molecular target: Gal(a1-3)Gal(b1-4)[Fuc(a1-3)]GlcNAc
# In short: as §1
# [8] = molecular target: Gal(a1-3)Gal(b1-4)[Fuc(a1-3)]GlcNAc(b1-2)Man(a1-3)[Gal(a1-3)Gal(b1-4)[Fuc(a1-3)]GlcNAc(b1-2)Man(a1-6)]Man(b1-4)GlcNAc(b1-4)GlcNAc
# In short: as §1
# [9] = molecular target: Gal(a1-3)GalNAc
# In short: as §1
# [10] = molecular target: Gal(a1-3)[Gal(a1-4)]Gal(b1-4)GlcNAc
# In short: as §1
# [11] = molecular target: Gal(a1-4)Gal(b1-3)GlcNAc(b1-2)Man(a1-3)[Gal(a1-4)Gal(b1-3)GlcNAc(b1-2)Man(a1-6)]Man(b1-4)GlcNAc(b1-4)GlcNAc
# In short: as §1
# [12] = molecular target: Gal(a1-4)Gal(b1-4)Glc
# In short: as §1
# [13] = molecular target: Gal(a1-4)Gal(b1-4)GlcNAc
# In short: as §1
# [14] = molecular target: Gal(a1-4)Gal(b1-4)GlcNAc(b1-2)Man(a1-3)[Gal(a1-4)Gal(b1-4)GlcNAc(b1-2)Man(a1-6)]Man(b1-4)GlcNAc(b1-4)GlcNAc
# In short: as §1
# [15] = molecular target: Gal(a1-4)Gal(b1-4)GlcNAc(b1-3)Gal(b1-4)Glc
# In short: as §1
# [16] = molecular target: Gal(a1-4)GlcNAc
# In short: as §1
# [17] = molecular target: Gal(a1-6)Glc
# In short: as §1
# [18] = molecular target: Gal(b1-2)Gal
# In short: as §1
# [19] = molecular target: Gal(b1-3)Gal
# In short: as §1
# [20] = molecular target: Gal(b1-3)Gal(b1-4)GlcNAc
# In short: as §1
# [21] = molecular target: Gal(b1-3)Gal(b1-4)GlcNAc(b1-2)Man(a1-3)[Gal(b1-3)Gal(b1-4)GlcNAc(b1-2)Man(a1-6)]Man(b1-4)GlcNAc(b1-4)GlcNAc
# In short: as §1
# [22] = molecular target: Gal(b1-3)GalNAc
# In short: as §1
# [23] = molecular target: Gal(b1-3)GalNAc(a1-3)[Fuc(a1-2)]Gal(b1-4)Glc
# In short: as §1
# [24] = molecular target: Gal(b1-3)GalNAc(a1-3)[Fuc(a1-2)]Gal(b1-4)GlcNAc
# In short: as §1
# [25] = molecular target: Gal(b1-3)GalNAc(b1-3)Gal(a1-4)Gal(b1-4)Glc
# In short: as §1
# [26] = molecular target: Gal(b1-3)GalNAc(b1-4)Gal(b1-4)Glc
# In short: as §1
# [27] = molecular target: Gal(b1-3)GalNAc(b1-4)[Neu5Ac(a2-3)]Gal(b1-4)Glc
# In short: as §1
# [28] = molecular target: Gal(b1-3)GlcNAc
# In short: as §1
# [29] = molecular target: Gal(b1-3)GlcNAc(a1-6)Gal(b1-4)GlcNAc
# In short: as §1
# [30] = molecular target: Gal(b1-3)GlcNAc(b1-2)Man(a1-3)[Gal(b1-3)GlcNAc(b1-2)Man(a1-6)]Man(b1-4)GlcNAc(b1-4)GlcNAc
# In short: as §1
# [31] = molecular target: Gal(b1-3)GlcNAc(b1-2)Man(a1-3)[Gal(b1-3)GlcNAc(b1-2)Man(a1-6)]Man(b1-4)GlcNAc(b1-4)[Fuc(a1-6)]GlcNAc
# In short: as §1
# [32] = molecular target: Gal(b1-3)GlcNAc(b1-3)Gal(b1-3)GlcNAc
# In short: as §1
# [33] = molecular target: Gal(b1-3)GlcNAc(b1-3)Gal(b1-4)Glc
# In short: as §1
# [34] = molecular target: Gal(b1-3)GlcNAc(b1-3)Gal(b1-4)GlcNAc
# In short: as §1
# [35] = molecular target: Gal(b1-3)GlcNAc(b1-3)Gal(b1-4)GlcNAc(b1-6)[Gal(b1-3)GlcNAc(b1-3)]Gal(b1-4)Glc
# In short: as §1
# [36] = molecular target: Gal(b1-3)GlcNAc(b1-3)Gal(b1-4)[Fuc(a1-3)]GlcNAc(b1-6)[Gal(b1-3)GlcNAc(b1-3)]Gal(b1-4)Glc
# In short: as §1
# [37] = molecular target: Gal(b1-3)GlcNAc(b1-3)GalNAc
# In short: as §1
# [38] = molecular target: Gal(b1-3)GlcNAc(b1-6)Gal(b1-4)GlcNAc
# In short: as §1
binder,measurement,setting,value
"SLP (Clostridium difficile), Q183M8 (protein) MATTGTQGYTVVKNDWKKAVKQLQDGLKDNSIGKITVSFNDGVVGEVAPKSANKKADRDAAAEKLYNLVNTQLDKLGDGDYVDFSVDYNLENKIITNQADAEAIVTKLNSLNEKTLIDIATKDTFGMVSKTQDSEGKNVAATKALKVKDVATFGLKSGGSEDTGYVVEMKAGAVEDKYGKVGDSTAGIAINLPSTGLEYAGKGTTIDFNKTLKVDVTGGSTPSAVAVSGFVTKDDTDLAKSGTINVRVINAKEESIDIDASSYTSAENLAKRYVFDPDEISEAYKAIVALQNDGIESNLVQLVNGKYQVIFYPEGKRLETKSLEHHHHHH",glycan array binding signal (z-score),[1],-0.191
same,glycan array binding signal (z-score),[2],-0.046
same,glycan array binding signal (z-score),[3],12.1
same,glycan array binding signal (z-score),[4],-0.181
same,glycan array binding signal (z-score),[5],-0.178
same,glycan array binding signal (z-score),[6],-0.163
same,glycan array binding signal (z-score),[7],-0.186
same,glycan array binding signal (z-score),[8],-0.125
same,glycan array binding signal (z-score),[9],-0.169
same,glycan array binding signal (z-score),[10],-0.137
same,glycan array binding signal (z-score),[11],-0.087
same,glycan array binding signal (z-score),[12],-0.185
same,glycan array binding signal (z-score),[13],-0.156
same,glycan array binding signal (z-score),[14],0.537
same,glycan array binding signal (z-score),[15],-0.153
same,glycan array binding signal (z-score),[16],-0.172
same,glycan array binding signal (z-score),[17],-0.14
same,glycan array binding signal (z-score),[18],-0.185
same,glycan array binding signal (z-score),[19],-0.154
same,glycan array binding signal (z-score),[20],-0.199
same,glycan array binding signal (z-score),[21],-0.17
same,glycan array binding signal (z-score),[22],-0.166
same,glycan array binding signal (z-score),[23],-0.138
same,glycan array binding signal (z-score),[24],-0.122
same,glycan array binding signal (z-score),[25],-0.155
same,glycan array binding signal (z-score),[26],-0.022
same,glycan array binding signal (z-score),[27],-0.141
same,glycan array binding signal (z-score),[28],-0.181
same,glycan array binding signal (z-score),[29],-0.186
same,glycan array binding signal (z-score),[30],-0.082
same,glycan array binding signal (z-score),[31],-0.16
same,glycan array binding signal (z-score),[32],-0.209
same,glycan array binding signal (z-score),[33],3.65
same,glycan array binding signal (z-score),[34],-0.207
same,glycan array binding signal (z-score),[35],-0.178
same,glycan array binding signal (z-score),[36],-0.152
same,glycan array binding signal (z-score),[37],-0.141
same,glycan array binding signal (z-score),[38],-0.201
